# Results: the supplement of paper PMC4166925
# ± gives the standard deviation of the averaged measurements. Over roughly 33,000 sequences, “E-score (dimensionless, -0.5 to 0.5)” has its median near -0.049; the highest 2% begin near 0.37. The list shows a part of the results.
# Test system: T1, PmTbr T-box DNA-binding domain (GST fusion)
# T1 sequence: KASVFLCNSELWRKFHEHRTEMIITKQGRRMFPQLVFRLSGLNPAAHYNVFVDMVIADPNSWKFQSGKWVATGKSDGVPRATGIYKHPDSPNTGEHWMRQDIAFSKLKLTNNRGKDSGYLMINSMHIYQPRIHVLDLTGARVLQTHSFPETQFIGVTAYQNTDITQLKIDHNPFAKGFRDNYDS
# Assay: PBM E-score of 8-mer (E-score (dimensionless, -0.5 to 0.5)); Tbr is Tbrain of the sea star Patiria miniata (Pm) or the sea urchin Strongylocentrotus purpuratus (Sp); higher = stronger binding preference; most listed sequences are background and not binding sites
# Conditions: the construct has about 5 more residues each side
# Description: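 Universal protein-binding microarray (Agilent AMADID 016060, 60-bp probes with a 35-bp variable region) incubated with 200 nM GST-fused Patiria miniata Tbr T-box DNA-binding domain (residues 272-466) in PBS pH 7.5. Scored for every ungapped 8-mer (given with its reverse complement) by the Universal PBM Analysis Suite as E-score (modified Wilcoxon-Mann-Whitney enrichment, range -0.5 to 0.5; >0.45 counts as bound) and Z-score of median probe intensity. Two replicate arrays (datasets 1 and 2).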
row,Sequence,PBM E-score of 8-mer
1,CGAAGATC,-0.07 ± 0.0097
2,TGACTAAA,0.066 ± 0.046
3,CTTGATGA,0.0332 ± 0.025
4,CTAAATAC,0.0475 ± 0.013
5,TGGGCCCA,-0.187 ± 0.05
6,TAACCAAA,-0.186 ± 0.017
7,AAAAGGCT,-0.0914 ± 0.05
8,ACTAGGTA,-0.23 ± 0.039
9,CCGACATA,-0.03923 ± 2.8e-05
10,AACAAGTT,0.227 ± 0.099
11,AGTGCAGA,0.0714 ± 0.017
12,AAAACCGC,0.0182 ± 0.021
13,AGTACAGC,-0.172 ± 0.062
14,ACTCCTCA,-0.0441 ± 0.00072
15,AGGTCGTA,-0.0768 ± 0.013
16,AAACTCCA,-0.112 ± 0.031
17,ATACAATC,-0.298 ± 0.031
18,ACGACTAG,0.0749 ± 0.071
19,ACGGGGCG,0.101 ± 0.052
20,CACGACGC,0.0253 ± 0.014
21,CATGGCGC,0.133 ± 0.067
22,CGCCCGCC,0.0535 ± 0.013

row,Sequence,PBM E-score of 8-mer
1,CGCATCCG,-0.017 ± 0.013
2,AGATTTGC,0.097 ± 0.045
3,ATCCATTA,-0.114 ± 0.02
4,AACGCATG,-0.00137 ± 0.057
5,ATACATCG,-0.0762 ± 0.05
6,ATCGCCAA,0.0607 ± 0.039
7,ACCATGCG,0.124 ± 0.019
8,GGGTCGCA,0.171 ± 0.019
9,ATGTCCTC,-0.16273 ± 0.00013
10,CATTGGTA,-0.0019 ± 0.016
11,CGCCTATC,0.196 ± 0.013
12,GCTCTTGA,-0.141 ± 0.043
13,CGTGTGGC,0.154 ± 0.054
14,AGTCATGG,-0.153 ± 0.083
15,ACTACCAG,-0.186 ± 0.075
16,AATAAAGT,-0.0105 ± 0.09
17,AGAGAATG,-0.177 ± 0.036
18,GCTATGCC,-0.172 ± 0.045
19,CCCTGCTA,0.0423 ± 0.0081
20,TCTATCAA,-0.148 ± 0.052
21,TGATTACA,0.0958 ± 0.048
22,AGCTACTG,-0.13 ± 0.055

row,Sequence,PBM E-score of 8-mer
1,TAACGCCA,0.245 ± 0.051
2,ATGCCTAG,-0.218 ± 0.064
3,CAACCTCC,0.16 ± 0.033
4,ATCAAGAA,-0.26 ± 0.073
5,AGTATCCA,-0.0526 ± 0.08
6,ACCCCTAT,0.024 ± 0.0092
7,AAGATGAA,-0.131 ± 0.065
8,GTCAACGA,0.234 ± 0.014
9,CGACCTGC,0.196 ± 0.043
10,CGATGTGC,0.236 ± 0.082
11,CAGTGTGA,0.3958 ± 0.0034
12,GATGGCCA,-0.286 ± 0.0032
13,ACTCCCAC,0.202 ± 0.0068
14,GTGCGTTA,0.0621 ± 0.02
15,TGATACAA,0.126 ± 0.037
16,ACCATTCT,0.00522 ± 0.013
17,GACAGGAA,0.08894 ± 0.00038
18,CACCCTGA,0.239 ± 0.049
19,CGATCCGA,-0.184 ± 0.068
20,CTGCGCAA,0.00455 ± 0.037
21,TAACTACA,-0.0529 ± 0.014
22,CAAAACAC,0.182 ± 0.0029

row,Sequence,PBM E-score of 8-mer
1,CACCCTCC,0.28 ± 0.063
2,CTGTATGA,-0.163 ± 0.043
3,ACGTAGAG,-0.136 ± 0.046
4,AACGAGCT,-0.207 ± 0.056
5,AAACCTTC,-0.268 ± 0.086
6,GATTGTTA,0.109 ± 0.061
7,CCAGTAGC,-0.13 ± 0.063
8,CCTCAGCG,-0.0753 ± 0.039
9,AGTGGAAG,-0.0694 ± 0.034
10,ATGAACTG,-0.0337 ± 0.061
11,CCCGACTC,0.0379 ± 0.046
12,CGTAGCAG,0.0216 ± 0.014
13,GGACTTCA,-0.364 ± 0.011
14,ACTTGGCA,0.239 ± 0.015
15,AGCCTATG,-0.182 ± 0.025
16,GTTCTCAA,0.0659 ± 0.04
17,CGACGCAC,-0.0252 ± 0.048
18,GATGGACC,-0.0799 ± 0.023
19,ACTTCGCG,0.32923 ± 0.00015
20,ACTACAAG,-0.00619 ± 0.011
